Assay results reported in publication PMC11306785.
Results are given in words; binding and its absence hold for the method and conditions named. For some of these results: Binding seen in cells or lysates may run through a third protein. Some binding calls cover weakened binding; strength is not graded here. For some of these results: Sequences can lack the tags named with a protein. Blank lines part the entries; values can stand above or below the molecule they belong to.

Protein sequences, listed by entry. Tags and fused reporters are not part of them. Lines headed by an entry give the natural chain unless they say otherwise; changes in a name come on top. Chains listed by the source or under a name are the forms on record and can include a tag or linker.
UniProt P67775: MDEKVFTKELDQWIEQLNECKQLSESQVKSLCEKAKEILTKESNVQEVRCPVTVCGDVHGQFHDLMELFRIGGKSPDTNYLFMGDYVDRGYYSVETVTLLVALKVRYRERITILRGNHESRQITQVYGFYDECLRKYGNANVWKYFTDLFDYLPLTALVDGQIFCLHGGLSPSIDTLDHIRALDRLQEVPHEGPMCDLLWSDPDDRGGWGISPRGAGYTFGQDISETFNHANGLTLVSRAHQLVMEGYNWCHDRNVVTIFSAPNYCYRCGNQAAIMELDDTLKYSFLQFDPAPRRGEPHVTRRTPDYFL
UniProt P06730: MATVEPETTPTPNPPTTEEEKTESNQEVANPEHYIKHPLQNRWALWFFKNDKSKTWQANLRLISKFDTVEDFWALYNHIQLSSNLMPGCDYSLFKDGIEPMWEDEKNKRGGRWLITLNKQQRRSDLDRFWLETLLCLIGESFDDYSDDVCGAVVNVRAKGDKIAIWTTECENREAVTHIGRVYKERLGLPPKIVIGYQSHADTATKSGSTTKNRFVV
FLAG-eIF4E-VWLmut (P06730, form named): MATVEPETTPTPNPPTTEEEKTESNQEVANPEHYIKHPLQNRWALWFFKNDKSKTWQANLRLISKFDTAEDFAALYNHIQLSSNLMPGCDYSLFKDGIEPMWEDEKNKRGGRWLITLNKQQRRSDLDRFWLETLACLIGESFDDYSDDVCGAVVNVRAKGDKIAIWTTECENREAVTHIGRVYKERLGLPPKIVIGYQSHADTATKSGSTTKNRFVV
UniProt Q13541: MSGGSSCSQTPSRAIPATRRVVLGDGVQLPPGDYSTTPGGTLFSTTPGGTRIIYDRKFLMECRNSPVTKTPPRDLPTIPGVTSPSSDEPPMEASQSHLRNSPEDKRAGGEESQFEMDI
UniProt P35221: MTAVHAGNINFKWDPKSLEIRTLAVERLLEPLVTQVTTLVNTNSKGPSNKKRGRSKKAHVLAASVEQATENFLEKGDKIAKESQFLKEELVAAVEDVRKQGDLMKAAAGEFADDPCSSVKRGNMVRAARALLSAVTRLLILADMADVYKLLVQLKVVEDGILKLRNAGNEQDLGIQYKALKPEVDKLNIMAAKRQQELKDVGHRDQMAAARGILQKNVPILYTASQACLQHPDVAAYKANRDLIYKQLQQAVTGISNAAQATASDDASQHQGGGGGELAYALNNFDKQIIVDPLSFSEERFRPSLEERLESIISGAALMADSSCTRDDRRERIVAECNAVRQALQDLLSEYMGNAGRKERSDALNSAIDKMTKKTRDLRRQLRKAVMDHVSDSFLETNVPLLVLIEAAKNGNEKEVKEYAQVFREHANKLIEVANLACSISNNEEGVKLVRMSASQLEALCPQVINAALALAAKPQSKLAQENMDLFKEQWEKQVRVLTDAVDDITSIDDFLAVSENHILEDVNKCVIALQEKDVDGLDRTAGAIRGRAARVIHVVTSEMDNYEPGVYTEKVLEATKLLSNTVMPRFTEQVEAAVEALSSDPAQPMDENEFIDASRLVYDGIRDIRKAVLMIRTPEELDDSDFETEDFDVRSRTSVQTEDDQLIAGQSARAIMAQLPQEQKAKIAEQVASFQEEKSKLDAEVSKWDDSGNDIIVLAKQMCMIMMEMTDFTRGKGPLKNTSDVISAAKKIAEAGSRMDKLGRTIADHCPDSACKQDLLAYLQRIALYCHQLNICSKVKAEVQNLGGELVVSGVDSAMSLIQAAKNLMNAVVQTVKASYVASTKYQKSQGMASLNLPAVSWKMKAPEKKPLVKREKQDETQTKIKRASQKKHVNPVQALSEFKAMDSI

Experiments:
[1] = molecular target: T1, FLAG-tagged PPM1G (human) (UniProt O15355); test: co-IP; anti-FLAG affinity gel (25 μl), 1-2 mg lysate of transiently transfected HEK293H cells, 1 h at 4°C, lysis buffer 50 mM HEPES-KOH pH 7.5, 50 mM KCl, 2 mM MgCl2, 2 mM EGTA, 5% glycerol, 0.5% NP40; partners detected by Western blot; in Figure 3B cells treated with DMSO or PP242 for 2 h
T1 sequence: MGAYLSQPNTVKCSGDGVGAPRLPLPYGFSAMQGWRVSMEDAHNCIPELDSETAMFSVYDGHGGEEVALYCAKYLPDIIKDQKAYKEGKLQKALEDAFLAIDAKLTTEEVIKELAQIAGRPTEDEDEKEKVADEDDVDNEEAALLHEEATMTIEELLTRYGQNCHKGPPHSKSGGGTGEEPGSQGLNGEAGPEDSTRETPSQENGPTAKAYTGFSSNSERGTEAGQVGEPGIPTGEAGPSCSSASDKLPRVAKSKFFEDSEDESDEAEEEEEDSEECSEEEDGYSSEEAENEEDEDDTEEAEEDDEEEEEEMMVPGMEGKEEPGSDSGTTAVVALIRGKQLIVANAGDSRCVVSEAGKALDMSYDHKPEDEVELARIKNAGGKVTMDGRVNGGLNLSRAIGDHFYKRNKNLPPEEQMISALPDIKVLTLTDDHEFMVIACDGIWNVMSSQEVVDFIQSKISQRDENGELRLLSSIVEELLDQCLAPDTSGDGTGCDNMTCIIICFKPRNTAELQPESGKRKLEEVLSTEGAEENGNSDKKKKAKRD

[2] = molecular target: FLAG-PP2Acα (UniProt P67775); test: as above
[3] = molecular target: T2, FLAG-PPM1G-YLmut (human) (UniProt O15355); test: as above
T2 sequence: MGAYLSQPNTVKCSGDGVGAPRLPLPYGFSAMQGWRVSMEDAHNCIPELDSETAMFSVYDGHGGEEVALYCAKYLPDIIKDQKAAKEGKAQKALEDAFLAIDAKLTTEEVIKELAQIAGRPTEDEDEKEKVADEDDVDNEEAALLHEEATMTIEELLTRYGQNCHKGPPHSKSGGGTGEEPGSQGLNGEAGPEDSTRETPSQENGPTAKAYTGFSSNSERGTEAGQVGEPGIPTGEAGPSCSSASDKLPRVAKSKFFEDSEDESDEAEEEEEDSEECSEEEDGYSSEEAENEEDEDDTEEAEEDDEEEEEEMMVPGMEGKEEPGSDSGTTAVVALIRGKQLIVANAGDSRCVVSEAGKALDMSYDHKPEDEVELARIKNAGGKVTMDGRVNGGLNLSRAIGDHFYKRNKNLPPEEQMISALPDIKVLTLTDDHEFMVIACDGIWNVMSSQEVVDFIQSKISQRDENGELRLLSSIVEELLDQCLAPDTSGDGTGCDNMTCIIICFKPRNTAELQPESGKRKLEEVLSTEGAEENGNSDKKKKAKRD

[4] = molecular target: FLAG-tagged eIF4E (UniProt P06730); test: co-IP; FLAG-tagged eIF4E proteins co-expressed with HA-PPM1G in HEK293H; 6 mg input to saturate 15 μl anti-FLAG agarose-affinity gel; Western blot, quantitated
[5] = molecular target: FLAG-eIF4E-VWLmut (UniProt P06730); test: as above
[6] = molecular target: GST-tagged eIF4E (UniProt P06730); test: pull-down; GST pull-down: 1 μg GST-eIF4E on glutathione magnetic agarose beads, 100 ng 6xHIS-tagged protein, equilibration buffer, 30 min at 4°C; Western blot; both purified
[7] = molecular target: FLAG-tagged eIF4E (UniProt P06730); test: co-IP; anti-FLAG affinity gel (25 μl), 1-2 mg lysate of transiently transfected HEK293H cells, 1 h at 4°C, lysis buffer 50 mM HEPES-KOH pH 7.5, 50 mM KCl, 2 mM MgCl2, 2 mM EGTA, 5% glycerol, 0.5% NP40; partners detected by Western blot; in Figure 3B cells treated with DMSO or PP242 for 2 h
[8] = molecular target: endogenous eIF4E (human (endogenous in HEK293H)) (UniProt P06730); test: condition: only eIF4E bound to m7GDP (cap analog) agarose; pull-down; m7GDP (cap analog)-agarose beads (15 μl), 0.5 mg lysate of HEK293H cells transfected with FLAG-GFP or FLAG-PPM1G, 30 min at 4°C; Western blot

Molecule: endogenous 4E-BP1 (from UniProt Q13541 1-118) (other; other documents disagree on this pair)
binding [1]: no binding

B1: HA-PPM1G (enzyme, UniProt O15355 1-546)
chain: MGAYLSQPNTVKCSGDGVGAPRLPLPYGFSAMQGWRVSMEDAHNCIPELDSETAMFSVYDGHGGEEVALYCAKYLPDIIKDQKAYKEGKLQKALEDAFLAIDAKLTTEEVIKELAQIAGRPTEDEDEKEKVADEDDVDNEEAALLHEEATMTIEELLTRYGQNCHKGPPHSKSGGGTGEEPGSQGLNGEAGPEDSTRETPSQENGPTAKAYTGFSSNSERGTEAGQVGEPGIPTGEAGPSCSSASDKLPRVAKSKFFEDSEDESDEAEEEEEDSEECSEEEDGYSSEEAENEEDEDDTEEAEEDDEEEEEEMMVPGMEGKEEPGSDSGTTAVVALIRGKQLIVANAGDSRCVVSEAGKALDMSYDHKPEDEVELARIKNAGGKVTMDGRVNGGLNLSRAIGDHFYKRNKNLPPEEQMISALPDIKVLTLTDDHEFMVIACDGIWNVMSSQEVVDFIQSKISQRDENGELRLLSSIVEELLDQCLAPDTSGDGTGCDNMTCIIICFKPRNTAELQPESGKRKLEEVLSTEGAEENGNSDKKKKAKRD
binding [4]: binds
binding [5]: no binding

B2: HIS-tagged PPM1G (enzyme, UniProt O15355 1-546)
chain: MGAYLSQPNTVKCSGDGVGAPRLPLPYGFSAMQGWRVSMEDAHNCIPELDSETAMFSVYDGHGGEEVALYCAKYLPDIIKDQKAYKEGKLQKALEDAFLAIDAKLTTEEVIKELAQIAGRPTEDEDEKEKVADEDDVDNEEAALLHEEATMTIEELLTRYGQNCHKGPPHSKSGGGTGEEPGSQGLNGEAGPEDSTRETPSQENGPTAKAYTGFSSNSERGTEAGQVGEPGIPTGEAGPSCSSASDKLPRVAKSKFFEDSEDESDEAEEEEEDSEECSEEEDGYSSEEAENEEDEDDTEEAEEDDEEEEEEMMVPGMEGKEEPGSDSGTTAVVALIRGKQLIVANAGDSRCVVSEAGKALDMSYDHKPEDEVELARIKNAGGKVTMDGRVNGGLNLSRAIGDHFYKRNKNLPPEEQMISALPDIKVLTLTDDHEFMVIACDGIWNVMSSQEVVDFIQSKISQRDENGELRLLSSIVEELLDQCLAPDTSGDGTGCDNMTCIIICFKPRNTAELQPESGKRKLEEVLSTEGAEENGNSDKKKKAKRD
binding [6]: binds

B4: FLAG-tagged PPM1G (enzyme, UniProt O15355 1-546)
chain: MGAYLSQPNTVKCSGDGVGAPRLPLPYGFSAMQGWRVSMEDAHNCIPELDSETAMFSVYDGHGGEEVALYCAKYLPDIIKDQKAYKEGKLQKALEDAFLAIDAKLTTEEVIKELAQIAGRPTEDEDEKEKVADEDDVDNEEAALLHEEATMTIEELLTRYGQNCHKGPPHSKSGGGTGEEPGSQGLNGEAGPEDSTRETPSQENGPTAKAYTGFSSNSERGTEAGQVGEPGIPTGEAGPSCSSASDKLPRVAKSKFFEDSEDESDEAEEEEEDSEECSEEEDGYSSEEAENEEDEDDTEEAEEDDEEEEEEMMVPGMEGKEEPGSDSGTTAVVALIRGKQLIVANAGDSRCVVSEAGKALDMSYDHKPEDEVELARIKNAGGKVTMDGRVNGGLNLSRAIGDHFYKRNKNLPPEEQMISALPDIKVLTLTDDHEFMVIACDGIWNVMSSQEVVDFIQSKISQRDENGELRLLSSIVEELLDQCLAPDTSGDGTGCDNMTCIIICFKPRNTAELQPESGKRKLEEVLSTEGAEENGNSDKKKKAKRD
binding [8]: no binding

Next, values leading:

binding [2]: no binding
binding [1]: binds
Molecule: endogenous eIF4E (from UniProt P06730 1-217)

binding [1]: binds
binding [3]: binds
Molecule: α-catenin (from UniProt P35221 1-906)

binding [7]: binds
B3: endogenous PPM1G (enzyme, UniProt O15355 1-546)
chain: MGAYLSQPNTVKCSGDGVGAPRLPLPYGFSAMQGWRVSMEDAHNCIPELDSETAMFSVYDGHGGEEVALYCAKYLPDIIKDQKAYKEGKLQKALEDAFLAIDAKLTTEEVIKELAQIAGRPTEDEDEKEKVADEDDVDNEEAALLHEEATMTIEELLTRYGQNCHKGPPHSKSGGGTGEEPGSQGLNGEAGPEDSTRETPSQENGPTAKAYTGFSSNSERGTEAGQVGEPGIPTGEAGPSCSSASDKLPRVAKSKFFEDSEDESDEAEEEEEDSEECSEEEDGYSSEEAENEEDEDDTEEAEEDDEEEEEEMMVPGMEGKEEPGSDSGTTAVVALIRGKQLIVANAGDSRCVVSEAGKALDMSYDHKPEDEVELARIKNAGGKVTMDGRVNGGLNLSRAIGDHFYKRNKNLPPEEQMISALPDIKVLTLTDDHEFMVIACDGIWNVMSSQEVVDFIQSKISQRDENGELRLLSSIVEELLDQCLAPDTSGDGTGCDNMTCIIICFKPRNTAELQPESGKRKLEEVLSTEGAEENGNSDKKKKAKRD
